In the supplement of paper PMC7826260:
The list shows a part of the results. Viral Rep nickase domains cut single-stranded DNA in vitro at 3 µM enzyme and 37 °C for 1 h; the strands have 90 letters, of which the middle is given. Numbers give uncut DNA relative to the enzyme-free pool, as log2; more negative means more cut, near 0 not cut, and no call is made. The scaling is to total reads; uncut strands gain when others are lost, and binding without cutting may add a little.

system: T1, Rep nickase domain of tomato golden mosaic virus; assay: uncleaved DNA left, log2 of reads against the no-enzyme library (log2 ratio); higher = less cleavage (more negative = more Rep cleavage of the k-mer); sequences stand for … in CTCGTCCG…ACCGGAGA
T1 sequence (protein, residues 1-124, tag omitted): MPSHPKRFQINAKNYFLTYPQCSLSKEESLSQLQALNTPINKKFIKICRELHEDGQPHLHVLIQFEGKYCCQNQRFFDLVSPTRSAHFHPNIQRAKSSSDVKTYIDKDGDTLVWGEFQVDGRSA
Protocol: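 A pool of 90-nt single-stranded DNAs with seven random bases just before the constant AC of the nick site (name = the seven bases) was cut by 3 µM recombinant His6-SUMO-tagged Rep nickase domain (300 nM DNA, 50 mM HEPES pH 8.0, 50 mM NaCl, 1 mM MnCl2, 1 h, 37 °C, three replicates). Uncut DNA was amplified and sequenced.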

Sequence | uncleaved DNA left (log2)
GGCTGTT | 0.0254
GTAGTGG | 0.119
TTTGCCA | 0.000914
ACAGGGA | 0.00277
TGGGGCC | -0.0984
TCCCAAT | 0.00181
GGGACGA | 0.134
GCACTCA | 0.0675
CCCGACG | -0.0839
ACGTGCC | 0.152
CCAAGGA | -0.0384
TGGGATC | -0.0349
CAAAGAC | 0.0128
TACGGGG | 0.113
TGGTTAG | 0.00839
ATCAGGA | 0.0994
CGCGATG | 0.0323
TGAACCG | -0.14
AACATAA | 0.125
AGTAATC | 0.0629

Sequence | uncleaved DNA left (log2)
TGTGTCA | 0.12
AAAAAAA | 0.167
GTCCCCA | 0.0303
CGATCAT | -0.108
AGGCAAG | -0.0484
TACGGTG | 0.0689
ATAAGGC | -0.0479
TATGCAC | 0.0497
GATCGTG | 0.0748
AACCACT | -0.0428
CTGAGGG | -0.0283
AGGATGC | -0.08
CCTAATG | -0.0181
AATGCAT | -0.0333
GTTGGGA | 0.0934
TTTCACA | 0.0555
ATATTGG | 0.0881
TTATTAC | -0.25
GCCTCGA | 0.169
GTTCAAA | 0.174
